Measured values: ChEMBL document CHEMBL1201862, “PubChem BioAssay data set” (2004)
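Following 48 hours of exposure in 96-well plates, responses at five concentrations were used to interpolate endpoints linearly. At the GI50, growth is halved.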 Activity calls are given as the source filed them. No stated cut-off is given here; in the data, active = GI50 up to about 1.1 µM and inactive = higher.

test system: NCI-H322M; test: NCI tumour cell line growth inhibition, 48 h

Structure (SMILES) | GI50
Nc1ccc(S(=O)(=O)Nc2ccc(Nc3c4ccccc4nc4ccccc34)cc2)cc1 | inactive: 3.9 µM
COc1ccc(CCN(C)C(=O)CC(C#N)(c2ccccc2)c2ccc(OC)c(OC)c2)cc1OC (stereo not drawn) | inactive: > 100 µM
CCCCCCNC(=O)CCC(NC(=O)c1ccc(N(C)Cc2cnc3nc(N)nc(N)c3n2)cc1)C(=O)NCCCCCC (stereo not drawn) | inactive: > 100 µM
O=C1NC2=NOC(=O)NC2=NO1 | inactive: > 200 µM
O=C(Sc1c(-c2ccccc2)c(=O)n(-c2ccccc2)c(=S)n1-c1ccccc1)c1cccs1 | inactive: > 100 µM
O=C(Cc1nc2ccccc2s1)C(=O)Nc1cccc(C(F)(F)F)c1 | inactive: > 100 µM
CC(C)OC(=O)OCSc1ccccc1/N=C/c1cccc([N+](=O)[O-])c1 | inactive: > 10 µM
CN(C)c1ccc([S+]([O-])Nc2ccccc2)cc1 (stereo not drawn) | inactive: 78.5 µM
N#Cc1nc(Sc2cnsn2)c(Sc2cnsn2)nc1C#N | inactive: 30.8 µM
CC(Oc1cc2oc(=O)cc(-c3ccccc3)c2cc1Cl)C(=O)O (stereo not drawn) | inactive: > 100 µM
C=C1C(=O)O[C@@H]2[C@H]1CCC(C)=C1C=CC(=O)[C@]12C | inactive: 20.7 µM
Cc1ccc2[nH]c3c(C)c4cc[n+](C)cc4c(C)c3c2c1 | inactive: 1.3 µM
CN(CC(=O)O)Cc1c[nH]c2ccccc12 | inactive: > 100 µM
COc1ccc(/N=C/N(C)C)c(C)c1 | inactive: 23.7 µM
CC(C)(Oc1ccc(C(=O)c2ccc(Cl)cc2)cc1Cl)C(=O)Nc1c(Cl)cccc1Cl | inactive: > 100 µM
N#CCC(=O)NC1C2CC3CC(C2)CC1C3 (stereo not drawn) | inactive: 18.5 µM
CC(C)CCCC(C)[C@H]1CC[C@H]2[C@@H]3CC[C@H]4C[C@@H](CCC=C(c5cc(Cl)c(O)c(C(=O)O)c5)c5cc(Cl)c(O)c(C(=O)O)c5)CC[C@]4(C)[C@H]3CC[C@]12C (stereo partly drawn) | inactive: > 50 µM
O=C1CC(NC2CC(=O)c3c(Br)sc(Br)c32)c2c(Br)sc(Br)c21 (stereo not drawn) | inactive: 13.3 µM
C/C(O)=C1\CC2CN3CCc4c([nH]c5ccccc45)C3CC2CC1=O (stereo not drawn) | inactive: 91.4 µM
CCOC(=O)Oc1cc2c(c(OC)c1OC)-c1ccc(OC)c(=O)cc1C(NC(C)=O)CC2 (stereo not drawn) | active: 0.179 µM
OCCCNc1[nH]cnc2nncc1-2 | inactive: > 100 µM
CCC1CN2CCc3c([nH]c4ccccc34)[C@@](C(=O)OC)(c3cc4c(cc3OC)N(C)C3C(O)(C(=O)OC)C(C(=O)OC)C5(CC)C=CCN6CCC43C65)C[C@@H](C2)[C@@H]1C(C)(C)C (stereo partly drawn) | active: 0.498 µM

Structure (SMILES) | GI50
C=C1C(=O)O[C@H]2/C=C(/C)C3=CC(=O)[C@@](C)(C[C@@H](OC(=O)/C(C)=C\C)C12)O3 (stereo partly drawn) | inactive: 10.9 µM
COc1ccc(-c2c(C(C)=O)c(-c3ccccc3)n(C3OC(COC(C)=O)C(OC(C)=O)C(OC(C)=O)C3OC(C)=O)c(=S)c2C#N)cc1 (stereo not drawn) | inactive: > 100 µM
c1ccc2c(c1)cc1ccc3cccc4ccc2c1c34 | inactive: 14.1 µM
CCOC(=O)/C=C(\C(=O)OCC)n1cnc2c(N)ncnc21 | inactive: 16.6 µM
CNc1nnc(CCCCCCCCc2nnc(NC)o2)o1 | inactive: > 100 µM
CCCCNC(=O)c1cc(S(=O)(=O)n2ccnc2O)c(SC)cc1Cl | inactive: > 100 µM
O=C(CC(=O)N1N=C(c2ccccc2)C(/N=N/c2ccc(Cl)cc2)C1=O)Nc1ccccc1Cl (stereo not drawn) | inactive: 29.2 µM
CC#Cc1cc2c(cc1O)CC[C@@H]1[C@@H]2CC[C@]2(C)[C@@H](O)CC[C@@H]12 | inactive: 4.08 µM
NS(=O)(=O)c1nnc(NS(=O)(=O)c2ccc([N+](=O)[O-])cc2)s1 | inactive: > 100 µM
CCN(CC(=O)O)C(=O)c1cccnc1 | inactive: > 100 µM
N=C(N)NCC[C@H](NC(=O)OCCCCCn1ccc(=O)[nH]c1=O)C(=O)O | inactive: > 100 µM
C=C1CC2OC2(C(=O)O[C@H]2CCC3[C@@H]4CCC5=CC(=O)CC[C@]5(C)C4CC[C@@]32C)C1=O (stereo partly drawn) | inactive: 17 µM
O=c1cc2ccccc2nn1-c1ccccc1Cl | inactive: 84.7 µM
CC(C)=CCc1c(O)ccc2ccc(=O)oc12 [OSTHENOL] | inactive: > 92 µM
O=C(CC(=O)c1ccccc1)c1ccccc1.O=C(CC(=O)c1ccccc1)c1ccccc1.O=C(CC(=O)c1ccccc1)c1ccccc1.[SiH4] | inactive: 2.66 µM
COC(=O)n1c(C)c(C=O)c2ccc(OC)cc21 | inactive: 49.7 µM
CC(=O)N(O)Cc1ccccc1 | inactive: > 100 µM
COC(=O)c1nc(N)nc(O)c1CCCCCc1c(O)nc(N)nc1C(=O)OC | inactive: > 50 µM
CCc1n[nH]c(=O)n1CC | inactive: > 100 µM
CC(=O)c1c(CO[N+](=O)[O-])[n+]([O-])c2ccccc2[n+]1[O-] | inactive: 47.2 µM
COc1ccc2c3c1O[C@H]1C(OC)C=CC4C(C2)N(Cc2cccs2)CCC341 (stereo partly drawn) | inactive: > 100 µM
